These results are taken from PubChem BioAssay AID1745853 (National Center for Advancing Translational Sciences (NCATS), 2022).

What all share (assay): Primary Screen for Target Class Profiling of Small Molecule Inhibitors of Methyltransferases
For assay [1], the target named is Glycine N-methyltransferase (Homo sapiens) (UniProt Q14749). The settings on record: purified enzyme, MTase-Glo SAH luminescence; measured here: GNMT inhibition; at 40 µM; stronger effect = lower value. The method, boiled down:
(§1)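 Each enzyme was reacted with SAM and its substrate, with compounds tested once at 40 uM; SAH formed was read by MTase-Glo luminescence.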

Assay [2] deals with Guanidinoacetate N-methyltransferase (Homo sapiens) (UniProt Q14353). The settings on record: purified enzyme, MTase-Glo SAH luminescence; measured here: GAMT inhibition; at 40 µM; stronger effect = lower value. An outline of the steps:
as §1

The target of assay [3] is Histamine N-methyltransferase (Homo sapiens) (UniProt P50135). The settings on record: purified enzyme, MTase-Glo SAH luminescence; measured here: HNMT inhibition; at 40 µM; stronger effect = lower value. The method, boiled down:
as §1

Assay [4] concerns the target Nicotinamide N-methyltransferase (Homo sapiens) (UniProt P40261). The settings on record: purified enzyme, MTase-Glo SAH luminescence; measured here: NNMT inhibition; at 40 µM; stronger effect = lower value. An outline of the steps: as §1
Assay [5] deals with Phenylethanolamine N-methyltransferase (Homo sapiens) (UniProt P11086). The note with it: purified enzyme, MTase-Glo SAH luminescence; measured here: PNMT inhibition; at 40 µM; stronger effect = lower value. The method, boiled down:
as §1

This is one part of the list. Shown are side measurements of this screen, not its main read-out; they come without a call.
On the % scale 0 is the no-effect control and ±100 the full control effect.

Consider `Cc1ccc(C2=NC3(CCN(C(=O)COc4cccc(C)c4)CC3)ON2)cc1`, for which the activity change, negative = inhibition is -5.88% in assay [1]; -3.68% in assay [2]; -4.65% in assay [3]; -6.06% in assay [4]; -3.45% in assay [5].
For `O=C(c1ccsc1)N1CCc2c(nc3cc[nH]n3c2=O)C1`, in that order: -5.84%, -8.25%, -3.9%, -11.8% and -10.9%.
For `CCC(C)(OC(C)=O)C(=O)O[C@H]1[C@H](OC(C)=O)[C@]2(CO)[C@H](O)[C@H](O)[C@]3(C)C(=CCC4[C@@]5(C)CC[C@H](O[C@@H]6O[C@H](C(=O)O)[C@@H](O)[C@H](O[C@@H]7OC[C@H](O)[C@H](O[C@@H]8OC[C@H](O)[C@H](O)[C@H]8O)[C@H]7O)[C@H]6O[C@@H]6O[C@H](CO)[C@@H](O)[C@H](O)[C@H]6O)C(C)(C)C5CC[C@]43C)[C@@H]2CC1(C)C` (stereo not given in full), in that order: -3.06%, -1.23%, 9.15%, -15% and -10.4%.
For `C=CCn1c(=O)c2ccc(C(=O)NC(C)C)cc2n2c(=O)n(CC(=O)NCCc3ccccc3)nc12`, the activity change, negative = inhibition in assay [1] was 4.78%; in assay [2], 1.77%; in assay [3] it was 3.48%; in assay [4], 5.31%; in assay [5], 6.5%.
For `Cc1ccc(CNC(=O)c2ncn3c2C(=O)N(C2CC2)C(C)(C(=O)NCc2cccc(C)c2)C3)cc1` (stereo not given), in that order: 3.56%, 3.11%, 12.3%, 7.8% and 9.06%.
On to `CCCN1C(=O)c2cc(C(=O)NCCc3ccc(OCC)cc3)nn2CC1(C)C(=O)NC1CCCC1` (stereo not given), for which the activity change, negative = inhibition in assay [1] was 2.55%; in assay [2], 0%; in assay [3] it was -19.5%; in assay [4], 5.88%; in assay [5], 2.32%.
In the case of `COc1ccc(Cl)cc1N1C(=O)CSc2c(c3ccccc3n2C)C1C(=O)NCc1ccccc1` (stereo not given), the activity change, negative = inhibition in assay [1] turned out to be 4.55%; in assay [2], 0%; in assay [3] it was 10.5%; in assay [4], 5.59%; in assay [5] it was 5.68%.
On to `CC1(C(=O)NC2CCCCC2)Cn2c(ccc2-c2ccco2)C(=O)N1CCc1ccccc1Cl` (stereo not given), for which the activity change, negative = inhibition in assay [1] is -18.1%; in assay [2], 4.75%; in assay [3] it was -13.8%; in assay [4] it was -16.6%; in assay [5] it was -3.58%.
For `COc1c(O)cc2c(c1O)[C@@H]1O[C@H](CO)[C@@H](O)[C@H](O)[C@H]1OC2=O`, in that order: -2.78%, -0.371%, 4.75%, -11.5% and -7.87%.
For `O=C(O)c1ccnc(-c2cc(C(=O)NCCc3ccccc3)ccn2)c1`, in that order: -5.95%, -0.415%, -3.72%, -19.3% and -12.3%.
For `COc1ccc(C(=O)NC[C@@H]2CC[C@H]3C[C@@H]2C3(C)C)cc1`, in that order: -3.63%, -3.29%, 0.495%, -21.4% and -6.46%.
With `OC[C@@H]1CNC[C@H]1c1nc(-c2ccncc2)no1`, the activity change, negative = inhibition in assay [1] is -2.97%; in assay [2], -2.22%; in assay [3] it was -0.68%; in assay [4], -4.12%; in assay [5], -2.88%.
For `CCCCC(F)(F)[C@@]1(O)CC[C@H]2[C@H](CC(=O)[C@@H]2CCCCCCC(=O)O)O1`, in that order: -0.347%, 4.62%, 10.4%, -9.38% and 4.93%.
For `Cc1ccc(Cl)cc1N1CCN(C(=O)CCc2nnc3n(C)c(=O)c4ccccc4n23)CC1`, in that order: -3.25%, 0%, 6.01%, 4.27% and -3.06%.
`Nc1cccc(-c2cc3c(Oc4cccc(O)c4)ncnc3[nH]2)c1`: the activity change, negative = inhibition is -51.7% in assay [1]; -24.7% in assay [2]; -58% in assay [3]; -47.2% in assay [4]; -27.4% in assay [5].
For `CC1OC1P(=O)(O)O` (stereo not given), in that order: -9.75%, -0.403%, -2.85%, -10.9% and 1.56%.
For `CC1(C(=O)NC2CCCCC2)Cn2c(ccc2-c2ccco2)C(=O)N1Cc1ccccc1Cl` (stereo not given), in that order: -9.62%, -9.47%, 4.23%, -13.2% and -8.57%.
Take `O=C(NCc1cc(F)ccc1F)[C@@H]1CNC[C@H]1COc1cccnc1`: the activity change, negative = inhibition in assay [1] is -1.21%; in assay [2], -1.23%; in assay [3], 0.96%; in assay [4] it was -2.56%; in assay [5] it was -10.1%.
For `COc1ccc(-n2nc(C(N)=O)c3c2C(=O)N(c2ccc(N4CCCCC4=O)cc2)CC3)cc1`, in that order: -5.57%, -2.31%, 6.78%, -17.1% and -0.402%.
In the same order, the values of `O=S(=O)(NCCn1c(CCc2ccccc2)nc2ccccc21)c1ccccc1Cl` are -2.99%, 2.84%, -1.64%, -4.71% and -0.116%.
`COc1ccc2cc3n(c2c1)CC(C)(C(=O)NC1CCCCCC1)N(CCN1CCOCC1)C3=O` (stereo not given): the activity change, negative = inhibition in assay [1] was -3.84%; in assay [2], 1.72%; in assay [3], 0.714%; in assay [4] it was -4.63%; in assay [5] it was 0.1%.
In the same order, the values of `CCc1ccc(N2C(=O)CSc3c(c4ccccc4n3C)C2C(=O)NCCC(C)C)cc1` (stereo not given) are 5.59%, 0%, -1.05%, 1.25% and 4.54%.
In the same order, the values of `CN(C)Cc1cn(C[C@H]2C[C@@H](NS(=O)(=O)c3ccccc3)[C@H](O)[C@@H]2O)nn1` are -2.25%, -6.68%, -24.2%, -18.1% and -4.38%.
For `COC1C=C(C)C(O)(CO)C2(C)CCCC(C)(C)C12` (stereo not given), in that order: 1.28%, 2.22%, 7.81%, -13.8% and -3.92%.
On to `COc1ccc(NC(=O)Cn2c(=O)oc3cc(S(=O)(=O)NCc4ccccc4)ccc32)cc1OC`, for which the activity change, negative = inhibition stood at 10.1% in assay [1]; 6.47% in assay [2]; 9.29% in assay [3]; 8.47% in assay [4]; 8.38% in assay [5].
In the same order, the values of `COc1cccc(CNC(=O)c2ccc3c(=O)nc4c(-c5cccc(C)c5)n[nH]n4c3c2)c1` are -12.6%, 0%, -2.63%, -5.57% and -6.55%.
In the same order, the values of `Cc1cccc(CCNC(=O)CCCc2nnc3n4nc(C)nc4c4ccccc4n23)c1` are 0.679%, 3.02%, 9.28%, 13.8% and 1.13%.
For `CC1(C(=O)NC2CCCCC2)Cn2c(cc3sccc32)C(=O)N1Cc1ccc2c(c1)OCO2` (stereo not given), in that order: 1.04%, 2.28%, 5.31%, -4.99% and 2.16%.
